Assay results as given in PubChem BioAssay AID1347165 (National Center for Advancing Translational Sciences (NCATS), 2019).
About 5,700 (2.6%) of roughly 220,000 compounds were called active. This list was built around the results that the source calls inconclusive (neither active nor inactive); the mix of calls is not that of the screen. The call rests on the fitted dose curve; in most records, active means well fitted inhibition curve with a large enough effect; inconclusive means small, poorly fitted or top-dose-only effect; inactive means no such curve, though single readings can be large or run the other way. Potencies beside an inconclusive call are fits to weak or partial responses and may not hold up.

target: Lysine-specific demethylase 5B (Homo sapiens) (UniProt Q9UGL1); assay: Primary screen for KDM5B Histone Demethylases FDH-coupled qHTS; conditions: FDH-coupled NADH fluorescence (FDH is formaldehyde dehydrogenase); activity change, negative = inhibition: at 57.7 µM (top of the series) unless noted; further: nearly all actives have a fitted effect of over 70% in size; on activity change, negative = inhibition: 0% is about no effect
Chain of UniProt Q9UGL1 (Q9UGL1 whole entry, looked up): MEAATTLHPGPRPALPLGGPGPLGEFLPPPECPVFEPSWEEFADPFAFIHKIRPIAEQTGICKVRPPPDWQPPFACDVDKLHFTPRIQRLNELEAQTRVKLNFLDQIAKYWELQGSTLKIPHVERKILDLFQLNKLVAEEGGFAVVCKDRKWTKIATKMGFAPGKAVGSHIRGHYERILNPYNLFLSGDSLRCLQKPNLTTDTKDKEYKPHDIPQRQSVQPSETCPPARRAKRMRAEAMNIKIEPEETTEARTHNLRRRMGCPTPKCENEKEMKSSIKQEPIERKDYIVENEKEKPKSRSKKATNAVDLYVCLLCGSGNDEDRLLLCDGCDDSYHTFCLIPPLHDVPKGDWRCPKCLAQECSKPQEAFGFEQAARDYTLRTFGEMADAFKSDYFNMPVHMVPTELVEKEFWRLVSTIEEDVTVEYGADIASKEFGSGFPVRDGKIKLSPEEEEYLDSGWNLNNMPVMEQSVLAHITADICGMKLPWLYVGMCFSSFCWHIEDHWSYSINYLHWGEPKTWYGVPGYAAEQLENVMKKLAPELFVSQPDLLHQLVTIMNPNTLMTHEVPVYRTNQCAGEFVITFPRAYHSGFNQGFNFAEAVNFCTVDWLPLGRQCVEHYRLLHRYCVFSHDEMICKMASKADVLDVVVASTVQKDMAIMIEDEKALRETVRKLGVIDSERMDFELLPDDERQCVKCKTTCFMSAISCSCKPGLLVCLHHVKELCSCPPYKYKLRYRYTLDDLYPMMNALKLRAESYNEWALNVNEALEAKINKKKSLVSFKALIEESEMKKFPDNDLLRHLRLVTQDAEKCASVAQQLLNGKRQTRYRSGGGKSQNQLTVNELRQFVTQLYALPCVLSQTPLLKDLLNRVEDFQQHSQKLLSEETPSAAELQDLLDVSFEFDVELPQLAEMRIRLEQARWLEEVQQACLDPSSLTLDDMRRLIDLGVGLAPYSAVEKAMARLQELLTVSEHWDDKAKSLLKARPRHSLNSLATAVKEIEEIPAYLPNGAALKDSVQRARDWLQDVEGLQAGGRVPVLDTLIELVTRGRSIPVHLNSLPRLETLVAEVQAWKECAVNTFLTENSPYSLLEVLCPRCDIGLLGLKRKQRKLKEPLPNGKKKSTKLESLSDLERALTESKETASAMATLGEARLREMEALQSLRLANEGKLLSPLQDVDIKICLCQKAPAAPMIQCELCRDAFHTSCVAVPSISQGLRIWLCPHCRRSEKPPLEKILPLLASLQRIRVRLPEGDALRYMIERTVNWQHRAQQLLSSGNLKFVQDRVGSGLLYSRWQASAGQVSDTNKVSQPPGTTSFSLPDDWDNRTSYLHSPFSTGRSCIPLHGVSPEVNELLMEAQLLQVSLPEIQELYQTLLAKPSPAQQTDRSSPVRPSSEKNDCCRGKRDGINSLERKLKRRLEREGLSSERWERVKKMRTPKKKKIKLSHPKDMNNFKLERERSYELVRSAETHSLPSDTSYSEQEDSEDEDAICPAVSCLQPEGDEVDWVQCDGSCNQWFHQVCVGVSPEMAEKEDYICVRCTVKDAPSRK
Procedure, shortened: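 Coupled FDH/NAD⁺ fluorescence readout. KDM5BΔAP 200 nM final; compound titration, 10 min RT preincubation; substrate mix 12.5 µM H3K4me3, 25 µM 2-OG, 50 µM Fe(II), 100 µM ascorbate, 0.25 mM NAD⁺, 0.25 U/mL FDH; ΔRFU over 30 min.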
Potency means the concentration at half of the fitted maximal effect; tags describe the fitted curve by direction and shape.

| Structure (SMILES) | Potency | activity change, negative = inhibition |
| --- | --- | --- |
| CNC(=O)N1CCC(C2CCN(Cc3ccc(Br)o3)C2)CC1 (stereo unspecified) | inactive |  |
| CC(C)c1ccc(N2C(=O)CSC23C(=O)N(Cc2cccc(F)c2)c2ccccc23)cc1 (stereo unspecified) | inconclusive: 1.58 µM [inhibitor, full curve, poor fit] |  |
| O=C(NC1CCCCCC1)c1nn(-c2ccccc2)c(=O)c2ccccc12 | inactive |  |
| O=C(COCc1cc(-c2cccs2)on1)N1CCN(c2ccccc2)CC1 |  | inconclusive: -31.4% [inhibitor] |
| COCCCNc1ncnc2c1CN(c1ccccc1)C(=O)CN2C | inconclusive: 35.5 µM [inhibitor, partial curve, poor fit] |  |
| CC(=O)c1ccc(N2CCN(C(=O)c3cc4n(n3)CC(c3ccc(Cl)cc3)OC4)CC2)cc1 (stereo unspecified) | inconclusive: 31.6 µM [inhibitor, partial curve, poor fit] |  |
| CNCCN1C(=O)CC[C@H]2CN(C(=O)N3CCOCC3)CC[C@H]21 | inactive |  |
| CN(C)c1cccc(C(=O)N2CCC(c3c[nH]c4ccccc34)(c3c[nH]c4ccccc34)CC2)c1 | inconclusive: 31.6 µM [inhibitor, partial curve, poor fit] |  |
| Cc1cc(C)c2cc(C(=O)NC3CCN(S(C)(=O)=O)CC3)[nH]c2c1 | inconclusive: 15.8 µM [inhibitor, partial curve, poor fit] |  |
| Cc1ccc2c(c1)C1CC(c3ccccc3Cl)=NN1C1(CCN(C)CC1)O2 (stereo unspecified) | inconclusive: 31.6 µM [inhibitor, single point] |  |
| Cc1cccc(C)c1NC(=O)c1cc2cc(Br)ccc2oc1=O | inactive |  |
| COc1cc(Nc2nc(SCc3ccc(Cl)cc3)nc3ccccc23)cc(OC)c1 | inconclusive: 35.5 µM [inhibitor, partial curve, poor fit] |  |
| COc1ccc(-c2oc3ncn4nc(COc5cccc(C)c5C)nc4c3c2-c2ccc(OC)cc2)cc1 | inconclusive: 2.51 µM [inhibitor, full curve, poor fit] |  |
| CC(C)Oc1ccc(CNC(=O)c2cc3n(n2)CC(c2ccc(Cl)cc2)OC3)cc1 (stereo unspecified) | inactive |  |
| O=C1c2oc3ccccc3c(=O)c2C(c2cccc(O)c2)N1c1nncs1 (stereo unspecified) | inconclusive: 7.08 µM [inhibitor, partial curve, poor fit] |  |
| COc1cc(-c2ccnc3nc(C4CCC4)nn23)cc(OC)c1OC | active: 22.4 µM |  |
| COc1cccc(C(=O)Nc2nc3nc(-c4ccccc4)cc(=O)n3[nH]2)c1 | inconclusive: 35.5 µM [inhibitor, single point] |  |
| CC(NC(=O)C1CCC1)C(=O)N1CCN(c2ccccn2)CC1 (stereo unspecified) | active: 22.4 µM |  |
| Cc1ccc(-c2cc(C(=O)NCCCN3CCCC3)c3ccccc3n2)cc1C | inconclusive: 22.4 µM [inhibitor, partial curve, poor fit] |  |
| CN(CCOc1ccccc1Cl)Cc1cc(=O)oc2cc(O)ccc12 | inconclusive: 28.2 µM [inhibitor, partial curve, poor fit] |  |
| COC(=O)c1cc(-c2cc(C(F)(F)F)ccc2Cl)oc1C | inactive |  |
| CCn1cc(CNC(=O)c2cc(-c3cccc(C)c3)nc3ccccc23)cn1 | inconclusive: 31.6 µM [inhibitor, single point] |  |
| CCOc1ccccc1CN1CCN(C(=O)c2ccccn2)CC1CCO (stereo unspecified) | active: 20 µM |  |
| CCc1ccc2nc(N(CCN(CC)CC)C(=O)c3cccs3)sc2c1 | inconclusive: 25.1 µM [inhibitor, partial curve, poor fit] |  |

| Structure (SMILES) | Potency | activity change, negative = inhibition |
| --- | --- | --- |
| O=C(CCc1ccsc1)Nc1cccc(N2CCCC2=O)c1 | inactive |  |
| O=[N+]([O-])c1c(Nc2ccccc2Cl)cc(Cl)c2nonc12 | inconclusive: 3.98 µM [inhibitor, full curve, poor fit] |  |
| COc1ccc(-n2c(SCC(=O)Nc3ccc(C(N)=O)cc3)nc3ccccc3c2=O)cc1 | inactive |  |
| CCN1C(=O)C2(CCN(S(=O)(=O)c3ccc(Cl)cc3C)CC2)c2ccccc21 | inactive |  |
| Cc1ccc(N=Cc2c(O)c3ccccc3n(C)c2=O)cc1 | inconclusive: 39.8 µM [inhibitor, single point] |  |
| O=C(NC1CC(c2cc(NCCO)ncn2)C1)c1cc2ccccc2[nH]1 (stereo unspecified) | active: 28.2 µM |  |
| O=C(CCN1CCN(c2cnccn2)CC1)Nc1cccc(Cl)c1 | inactive |  |
| C=CCOC(=O)C1=C(C)N=C2SC=C(CC(=O)N3CCCC3)N2C1c1cccc(OC)c1OC (stereo unspecified) | active: 28.2 µM |  |
| COC1CCC(C(=O)N2CCc3c(n(CCOc4ccccc4)n(-c4ccccc4)c3=O)C2)CC1 (stereo unspecified) | inactive |  |
| O=C(NC1CC1)[C@@H]1C[C@H](Oc2ccccc2)CN1C(=O)c1cc2ccccc2[nH]1 | inconclusive: 31.6 µM [inhibitor, partial curve, poor fit] |  |
| CCS(=O)(=O)N1CCCCCCNC(=O)[C@@H]2C[C@@H](C(=O)N3CCN(c4ccccn4)CC3)C[C@@H]21 | inconclusive: 28.2 µM [inhibitor, partial curve, poor fit] |  |
| COCCn1cnc2c1c(=O)n(CC(=O)OCCOc1ccccc1)c(=O)n2Cc1ccccc1 | inactive |  |
| Cc1cccc(N2CCN(C(=O)CS(=O)(=O)c3cccc4nsnc34)CC2)c1C | inactive |  |
| O=C(c1cc2ccccc2[nH]1)N1C[C@@H](CO)[C@H](c2ccccn2)C1 | inactive |  |
| CCC1CCCCN1C(=O)Cn1nc(-c2ccc(C)cc2)c2ccccc2c1=O (stereo unspecified) | inactive |  |
| C[S+](=O)([O-])N1CC2(CCN(Cc3cccnc3)C2)Cc2ccccc21 (stereo unspecified) | inactive |  |
| Cc1cc(C(=O)NCc2ccc(F)cc2)c2c(C3CCCN3)noc2n1 (stereo unspecified) | inactive |  |
| CC(C)c1ccc(C(O)Cn2ccn3nc(-c4ccc(F)cc4)cc3c2=O)cc1 (stereo unspecified) | active: 25.1 µM |  |
| O=c1cc(-c2cccnc2)oc2c(-c3cccc(F)c3)nccc12 | inconclusive: 7.94 µM [inhibitor, partial curve, poor fit] |  |
| COc1cc(OC)cc(OCC(=O)NC2CCCCCC2)c1 | inactive |  |
| Cc1ccc2c(N3CCC(CO)(CN4CCCC4)CC3)ccnc2c1C | inconclusive: 28.2 µM [inhibitor, single point] |  |
| COc1ccc(-c2ccnc3nc(CCc4ccc(OC)c(OC)c4)nn23)cc1 | active: 25.1 µM |  |
| FC(F)(F)Oc1ccc(-c2cn3cccnc3n2)cc1 | inconclusive: 22.4 µM [inhibitor, partial curve, poor fit] |  |
| Cc1c(C(=O)N2CCOCC2)oc2c1-c1nn(CC(=O)NCc3cccc(F)c3)cc1CC2 | inconclusive: 2 µM [inhibitor, partial curve, poor fit] |  |

| Structure (SMILES) | Potency | activity change, negative = inhibition |
| --- | --- | --- |
| CCOC(=O)CCN(C(=O)CCc1c(C)c2ccc(OC)cc2oc1=O)C1CC1 | inconclusive: 25.1 µM [inhibitor, partial curve, poor fit] |  |
| O=C(CSc1ncnc2nc[nH]c12)Nc1cc(Cl)ccc1Cl | inconclusive: 39.8 µM [inhibitor, single point] |  |
| Cc1ccc(-n2c(=O)c3cccnc3n2CC(=O)Nc2cc(C)cc(C)c2)cc1 | inconclusive: 17.8 µM [inhibitor, partial curve, poor fit] |  |
| CCNCc1ccc(-c2ccc(C(F)(F)F)cc2)o1 | inconclusive: 39.8 µM [inhibitor, single point] |  |
| CN(C)c1cccc(C(=O)NC2CCN(c3cc(-c4ccccc4)[nH]n3)C2)c1 (stereo unspecified) | active: 25.1 µM |  |
| CC1Oc2ccc(NC(=O)c3c(F)cccc3F)cc2CN(Cc2ccc(Cl)cc2)C1=O (stereo unspecified) | inactive |  |
| O=C(c1ccoc1)N1CCC2(CCCCO2)CC1 | inactive |  |
| Cc1cc(C(=O)N2C[C@@H](CO)[C@H](c3ccncc3)C2)c(C)o1 | inactive |  |
| Cc1cnc(C(=O)Oc2ccc(C#N)cc2)cn1 | inactive |  |
| CCCN(Cc1cc(=O)[nH]c2c(C)cc(C)cc12)C(=O)Nc1cc(Cl)c(OC)cc1OC | inconclusive: 25.1 µM [inhibitor, partial curve, poor fit] |  |
| Cc1noc(C2CC3(CCN(C(=O)CCCc4c[nH]c5ccccc45)CC3)CN2C)n1 (stereo unspecified) | inconclusive: 22.4 µM [inhibitor, partial curve, poor fit] |  |
| COCC1CN(Cc2ccc(Br)s2)CC12CCNCC2 (stereo unspecified) | active: 10 µM |  |
| O=C(Nc1cccc(Cl)c1)N1CCN(c2ccc(Cl)c(Cl)c2)CC1 | inactive |  |
| COc1ccc(-n2nc3cc(C)c(NC(=O)c4ccc(-c5ccc(Br)cc5)o4)cc3n2)cc1 | inconclusive: 15.8 µM [inhibitor, partial curve, poor fit] |  |
| COC(=O)c1cc(Cl)ccc1N | inconclusive: 28.2 µM [inhibitor, partial curve, poor fit] |  |
| Cc1[nH]c2ccc(Br)cc2c1CCNC(=O)c1cc2ccccc2oc1=O | inconclusive: 3.98 µM [inhibitor, full curve, poor fit] |  |
| C/C(=N\NC(=O)c1ccc(C(C)(C)C)cc1)c1ccc2ccccc2c1 | inactive |  |
| CNc1nc2c(s1)C(c1ccc(F)c(F)c1)CC(=O)N2 (stereo unspecified) | active: 31.6 µM |  |
| CC1(C)[C@H]2CC[C@@H](CNC(=O)c3ccccc3Cl)[C@@H]1C2 | inactive |  |
| Cc1ccc(CCNC(=O)c2ccc3[nH]c(C)c(C)c3c2)cc1 | inconclusive: 8.91 µM [inhibitor, partial curve, poor fit] |  |
| CCCCN(CCCC)c1nc(-c2ccncc2)nc2ccccc12 | inconclusive: 31.6 µM [inhibitor, partial curve, poor fit] |  |
| CN1CCC(N2CC[C@H](c3nnc(-c4ccc(Cl)cc4)o3)C2)CC1 | inconclusive: 31.6 µM [inhibitor, partial curve] |  |
| C[C@]1(O)CCN(C(=O)c2cn(C3CCC(N)CC3)nn2)C[C@@H]1O (stereo partly specified) | inconclusive: 25.1 µM [inhibitor, single point] |  |
